{"source": "ChEMBL document CHEMBL4888484", "about": "“Replenishing the malaria drug discovery pipeline: Screening and hit evaluation of the MMV Hit Generation Library 1 (HGL1) against asexual blood stage Plasmodium falciparum ,using a nano luciferase reporter read-out” (2022)", "note": "Out of some 150,000 compounds screened, about 540 (0.36%) showed an effect of 50% or more. The list shows a part of the results."}
{"tested_on": "Plasmodium falciparum", "test": "Primary screen in NF54 nanoGlo assay, in single point, at 2uM, 72h; a lower Z score goes with more inhibition", "format": "functional, Erythrocyte", "settings": "timepoint 72 hour", "units": {"% Inhibition": "%"}}
{"smiles": "Cc1nnc2n1[C@](C)(C(=O)NCCc1cccnc1)COC2", "% Inhibition": -13, "Z score": 1.52}
{"smiles": "CC(C)c1csc(-c2ccc(S(=O)(=O)NCc3ccccc3)s2)n1", "% Inhibition": -7, "Z score": 0.85}
{"smiles": "COCCn1cnc2c(-c3ccccc3)cn(CC(=O)Nc3ccccc3C)c2c1=O", "% Inhibition": -4, "Z score": 0.63}
{"smiles": "CN(Cc1ncnn1-c1ccc(F)cc1F)[C@H]1CCS(=O)(=O)C1", "% Inhibition": -8, "Z score": 1.27}
{"smiles": "Cc1c[nH]c(CN2CCC(Oc3ccc4ncccc4c3)(C(=O)O)CC2)n1", "% Inhibition": -12, "Z score": 1.55}
{"smiles": "CC(C)[C@H](NC(=O)Nc1ccc(C#N)nc1)C(N)=O", "% Inhibition": -25, "Z score": 3.15}
{"smiles": "C#CCCCC(=O)Nc1cc(Br)c(F)cc1OC", "% Inhibition": 34, "Z score": -3.83}
{"smiles": "Cc1cnn(CCC(=O)N2C(C)CN(C(=O)OC(C)(C)C)CC2C)c1", "note": "(stereo not drawn)", "% Inhibition": -7, "Z score": 0.88}
{"smiles": "N#CCN(CC#N)S(=O)(=O)Cc1ccc(Cl)c(F)c1", "% Inhibition": -8, "Z score": 0.92}
{"smiles": "CCN=C(N)N(C)Cc1cccc(OC)c1", "% Inhibition": -1, "Z score": 0.08}
{"smiles": "COc1ccc(C)nc1-c1cnc2ccccc2c1", "% Inhibition": -16, "Z score": 2.12}
{"smiles": "CCN1CCN(C(=O)CCc2nnc(Cc3cccc(C)c3)o2)[C@@H](C)C1=O", "% Inhibition": -14, "Z score": 2.64}
{"smiles": "COc1ccc(CCNC(=O)c2nn[nH]c2Nc2ccccc2F)cc1OC", "% Inhibition": 14, "Z score": -1.86}
{"smiles": "COCCN1C(=O)C[S@+]([O-])C12CCN(C(=O)c1ccccc1)CC2", "% Inhibition": -12, "Z score": 2.26}
{"smiles": "COC(=O)C1=C(C(=O)OC)SC(=C2C(=S)C(C)(C)N(C(=O)CN3C(=O)c4ccccc4C3=O)c3cc(C)c(C)cc32)S1", "% Inhibition": 1, "Z score": -0.11}
{"smiles": "Cn1ncc2c(N3CCCC3)nc(N3CCCCC3)nc21", "% Inhibition": 4, "Z score": -0.81}
{"smiles": "O=C(Cn1ccnc1[C@@H](O)c1cccs1)Nc1cccc(S(=O)(=O)N2CCCC2)c1", "% Inhibition": -15, "Z score": 2.79}
{"smiles": "O[C@@H](CNCc1ccccc1F)COc1cccc2ccccc12", "% Inhibition": -3, "Z score": 0.26}
{"smiles": "OC1CCC(N[C@H](c2cccnc2)c2ccc(F)c(F)c2)CC1", "note": "(stereo partly drawn)", "% Inhibition": -2, "Z score": 0.29}
{"smiles": "Cc1c(C(=O)N2CCCC2)sc2ncnc(NCc3ccc4c(c3)OCO4)c12", "% Inhibition": -8, "Z score": 0.98}
{"smiles": "COc1ccc(-c2cc(N(C)Cc3nnc(C4CCC4)n3C)n[nH]2)cc1", "% Inhibition": -15, "Z score": 2.84}
{"smiles": "Cc1nnc(N[C@H]2CCS(=O)(=O)C2)c(C#N)c1C", "% Inhibition": 0, "Z score": 0.02}
{"smiles": "CCc1c(C)noc1NC[C@]1(c2ccc(F)cc2)CCOC1", "% Inhibition": 3, "Z score": -0.5}
{"smiles": "COc1ccc(F)c(CN2CCC[C@@]3(CCN(C(=O)c4ccco4)C3)C2=O)c1", "% Inhibition": -13, "Z score": 1.86}
{"smiles": "Cc1ccccc1NC(=O)[C@H](C)n1nc(-c2ccccc2)c2c(c1=O)CCCC2", "% Inhibition": -3, "Z score": 0.47}
{"smiles": "Cc1cccnc1CNC(=O)c1cc(NS(=O)(=O)N(C)C)cc2nc(CC(C)C)n(C)c12", "% Inhibition": -4, "Z score": 0.53}
{"smiles": "Cc1cc(C)c(Br)c(C(=O)NCCc2nncn2C)c1", "% Inhibition": -14, "Z score": 1.59}
{"smiles": "c1nc(N2CCCC2)sc1CN1CCOC2(CCCC2)C1", "% Inhibition": 0, "Z score": -0.08}
{"smiles": "Cc1cc(C(F)(F)F)ccc1CN[C@@]1(CO)CCOC1", "% Inhibition": -5, "Z score": 0.95}
{"smiles": "CC(C)[C@@]1(CO)CCCN(c2ccnc(N(C)C)n2)C1", "% Inhibition": 32, "Z score": -3.68}
{"smiles": "O=C(Cn1c(=O)n(Cc2cccc(Cl)c2)c(=O)c2ccccc21)Nc1ccc(F)c(Cl)c1", "% Inhibition": 28, "Z score": -3.22}
{"smiles": "O=C(C1CCC1)N1CC[C@@]2(CCCN(Cc3cccc(F)c3F)C2=O)C1", "% Inhibition": -11, "Z score": 1.01}
{"smiles": "CC(O)CCCNC1[C@@H]2CCCN(C(=O)OC(C)(C)C)[C@@H]2C1(C)C", "note": "(stereo partly drawn)", "% Inhibition": -7, "Z score": 1.4}
{"smiles": "CC[C@H](NC(=O)Cc1nonc1C)c1nc(C)c(C)s1", "% Inhibition": -8, "Z score": 0.82}
{"smiles": "CC[C@@H](C(=O)N1CCC(=C2CC2)CC1)c1ccccc1", "% Inhibition": -11, "Z score": 1.32}
{"smiles": "Cc1nnc(N[C@H]2CCN(c3ncc(C(F)(F)F)cc3Cl)C2)o1", "% Inhibition": -9, "Z score": 1.62}
{"smiles": "N#CC1(NC(=O)COC(=O)c2cccc(-n3cnnn3)c2)CCCCC1", "% Inhibition": 4, "Z score": -0.72}
{"smiles": "O=C(Nc1ncc(Cc2ccccc2)s1)N1CCC[C@H](OCCO)C1", "% Inhibition": 4, "Z score": -0.79}
{"smiles": "Cn1nccc1C(=O)N1CCC[C@H]1c1cccs1", "% Inhibition": 2, "Z score": -0.35}
{"smiles": "O=C(NCc1ccc(-c2nc(C3CC3)no2)s1)c1cccc(F)c1", "% Inhibition": -7, "Z score": 1.25}
{"smiles": "COc1ccc(C(=O)C[n+]2cnn(CC(=O)c3ccc(C)cc3)c2)cc1", "% Inhibition": -14, "Z score": 1.25}
{"smiles": "Cc1nccnc1CN1C[C@H](C)[C@@](O)(C(C)C)C1", "% Inhibition": -4, "Z score": 0.6}
{"smiles": "CC1CCCC(OCc2nnc(-c3ccccc3)o2)C1", "note": "(stereo not drawn)", "% Inhibition": -3, "Z score": 0.39}
{"smiles": "O=C(NCc1nnc2ccccn12)c1ccc2c(c1)CCCC2", "% Inhibition": -12, "Z score": 2.25}
{"smiles": "N[C@@H]1CCCN(C(=O)C2CCn3c(cnc3C3CCCCC3)C2)C1", "note": "(stereo partly drawn)", "% Inhibition": -13, "Z score": 1.39}
{"smiles": "COc1ccccc1CNC(=O)CN1C(=O)[C@@H]2CCCCN2C(=O)c2ccccc21", "% Inhibition": -7, "Z score": 1.09}
{"smiles": "C[C@@]1(C2CC2)COCCN1C(=O)c1cnc(-c2cccnc2)s1", "% Inhibition": -10, "Z score": 1.67}
{"smiles": "CN(Cc1ccc2c(c1)OCO2)[C@@H](C(=O)O)c1ccsc1", "% Inhibition": -1, "Z score": 0.15}
{"smiles": "O=C(CN1CCN(S(=O)(=O)c2ccccc2F)CC1)NCC1(N2CCOCC2)CCCCC1", "% Inhibition": -30, "Z score": 3.5}
{"smiles": "Cc1cnn([C@H]2CCCN(Cc3cccc4c3OCO4)C2)c1", "% Inhibition": -18, "Z score": 2.33}
{"smiles": "CCc1ccc([C@@H]2CCCN2C(=O)NCc2cncn2C)o1", "% Inhibition": -8, "Z score": 1}
{"smiles": "COC(=O)c1cc(Cl)cc(NC(=O)CC2CCNCC2)c1", "% Inhibition": 30, "Z score": -4.1}
{"smiles": "Cc1cc(C(=O)N[C@@H](C)C2CC2)sc1C", "% Inhibition": -2, "Z score": 0.42}
{"smiles": "CCOc1ccc(C(=O)N2C3C=CCC2CC3)cc1OCC", "note": "(stereo not drawn)", "% Inhibition": -13, "Z score": 2.31}
